In the RNAGym collection of RNA variant scans (doi:10.1073/pnas.2313332121):
This sample is rich in variants without activity.

B1: TPR 5TU (parent)
chain: GGAUCUUCUCGAUCUAACAAAAAAGACAAAUCUGCCACAAAGCUUGAGAGCAUCUUCGGAUGCAGAGGCGGCAGCCUUCGGUGGCGCGAUAGCGCCAACGUUCUCAACUAUGACACGCAAAACGCGUGCUCCGUUGAAUGGAGUUUAUCAUG

Variants of: B1
Test: polymerase ribozyme fitness, log enrichment relative to wild type (log ratio); higher = more active; in vitro selection for triplet polymerase activity
In short: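 One round of in vitro selection, in triplicate, was applied to PCR-built, transcribed mutant libraries of each subunit of a heterodimeric triplet polymerase ribozyme. The steps were annealing with a biotinylated primer, partner subunit and triplets, incubation frozen at −7 °C, gel excision of extended constructs, streptavidin-bead capture and RT-PCR. Fitness is the logarithm, base 2, of genotype enrichment over wild-type enrichment from inverse-variance-weighted replicate averages of Illumina-sequenced inputs and outputs, keeping genotypes with ≥10 input reads and ≥1 read per output.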

Going from GGAUCUUCUCGAUCUAAUAAAAAAGACAAAUCUGCCACAAAGCUUGAGAGCAUCUUCGGAUGCAGAGGCGGCAGCAUUCGGUGGCGCGAUAGCGCCAACGUUCUCAACUAUGACACGCAAAACGCGGGCUCCGUUGCAUGGAGUUUAUCAUG [C18U C76A U127G A137C] to GGAUCUUCUCGAUCUAAUAAAAAAGACAAAUCUGCCACAAAGCUUGAGAGCAUCUUCGGAUGCAGAGGCGGCAGCCUUCGGUGGAGCGAUAGCGCCAACGUUCUCAACUAUGACACGCAAAACGCGUGCUCCGUUGAAUGGAGGUUAUCAUG [C18U C85A U144G], the “polymerase ribozyme fitness (log ratio)” value rises from ≤ -4.2 to 0.299.

GGAUCUUCUCGAUCUAAUAAAAAAGACAAAUCUGCCACAAAGCUUGAGAGCAUCUUCGGAUGCAGAGGCGGCAGCCUUCGGUGGCGCGAUAGAGACAACGUUCUCAACUAUGACACGCAAAAGGCGUGCUCCGUUGAAUGGAGUUUAUCAUG [C18U C93A C95A C123G] and GGAUCUUCUCGAUCUAAUAAAAAACCCAAAUGUGCCACAAAGCUUGAGAUCAUCUUCCGAUGCAGAGGCGGCAGUCUUCGGUGGCGCGAUGGCGCCAACGUUCUCAACUAUGAAACGCAAAACGCGUGCUCCGUUGAAUGGAGUUUAUCAUG [C18U G25C A26C C32G G50U G58C C75U A91G C114A] cannot be ordered by “polymerase ribozyme fitness (log ratio)” value: ≤ -4.2 for the first, ≤ -4.2 for the second.

GGAUCUUCUCGAUCUAAUAAAAAACACAAAUCUGCCACAAAGGUUGAGAGCAUCUUCGGAUGCAGAGGCGGCAGCCUUCGGUGGCGCGAUAGCGCCAAAGUUCUCAACUAUGACACGCAAAACGCGUGCUCCGUUGAAUGGAGUUUAUCAUG [C18U G25C C43G C99A] and GGAUCUUCUCGAUCUAAUAAAAAAGACAAAUCUGCCACAAAGCUUCAGAGCAUAUUCGCAUGCAGAGGCGGCAGCCUUCGGUGGCACGAUAGCGCCAACGUUCUCAACUAUGACACGCAAAACGCGUGCUCCGUUGAAUGGAGCUUAUCAUG [C18U G46C C54A G59C G86A U144C] cannot be ordered by “polymerase ribozyme fitness (log ratio)” value: ≤ -4.2 for the first, ≤ -4.2 for the second.

GGAUCUUCUCGAUCUAAUAAAAAAGACAAAUCUGCCACAAAGCUUGAGAACAUCUUCGGAUGCAGAGGCGGCAGACUUCGGUGGCGAGAUAGCGCCAAUGUUCUCAACUAUGACACGCAAAACGCGUGCUCCGUUGAAUGGAGUAUAUCAUG [C18U G50A C75A C87A C99U U145A] and GGAUCUUCUCGAUCUAAUAAAAAAGACAAAUCUGCCACAAAGCUUGAGACCAUCUUCGGAUGCAGAGGCGGAAGCCUUCGGUGGCGCGAUUGCGCCAACGUUCUCAACUAUGACACGCAAAACGCGUUCUCCGUUGAAUGGAGUUUAUCAUG [C18U G50C C72A A91U G128U] cannot be ordered by “polymerase ribozyme fitness (log ratio)” value: ≤ -4.2 for the first, ≤ -4.2 for the second.

First: GGAUCUUCUCGAUCUAAUAAAAAAGACAAAUCUGCCACAAAGCUUGAGAUCAUCUUCGGAUGCAGAGGCGGCAGCCUUCGGUGGCGCGAUAGCGCGAACGUUCUCAACUAUGACACGCAAAACGCGUGCUCCGUUGAAUGGAGUUCAUCAUG [C18U G50U C96G U146C]
Second: GGAUCUUCUCGAUCUAAUAAAAAAGACAAAUCUGCCACAAAGCUUGAGAUCAUCUUCGGAUGCAGAAGCGGCAGCCUUCGGUGGCGCGAUAGCGCUAACGUUGUCAACUAUGACACGCAAAACGCGUGCUCCGUUGAAUGGAGUUUAUCAUG [C18U G50U G67A C96U C103G]
The “polymerase ribozyme fitness (log ratio)” value of the first is higher: -0.747 for the first, ≤ -4.2 for the second.

GGAUCUUCUCGAUCUAAUAAAAAAGACAAAUCUGCCACAAAGCUUGAGAUCAUCUUCGGACGCAGAGGCGGCAGCCUUCGGUGGCGCGAUAGCGCCAACGUUCUCAACUAUGACACGCAAAACGCGUGCUCCGUUGAUUGGAGUUUAUCAUG [C18U G50U U61C A138U] and GGAUCUUCUCGAUCUAAUAAAAAAGACAAAUCUGCCACAAAGCUUGAGAGCAUCUUCGGAUACAGAAGCGGCAGCCGUCGGUGGCGAGAUAGCGCCAACGCUCUCAACUAUGACACGCAAAAUGCGUGCUCCGUUAAAUGGAGUUUAUCAUG [C18U G62A G67A U77G C87A U101C C123U G136A] cannot be ordered by “polymerase ribozyme fitness (log ratio)” value: ≤ -4.2 for the first, ≤ -4.2 for the second.

Compared with GGAUCUUCUCGAUCUAAUAAAAAAGACAAAUCUGCCACAAAGCUUGAGAGCAUCUUCGGAUGCAGAGCCGGCAGCCUUCGGUGGCGCGAUAGCGCCAACGUUCUCAACUAUGACACGCAAAACGCGUGCUCCGUUGAAUGAAGAUUAUCAGG [C18U G68C G141A U144A U151G], GGAUCUUCUCGAUCUAAUAAAAAAGACAAAUCUGCCACAAAGCUUGAGAGCAUCUUCGGAUGCAGAGGCGGCAGCCUUCGGUGACGCGAUAGCGCCAACGUUCUCAACUAUGACACGCAAAACGCGUGCUCCGUUGAAUGGAGUUUAUCAUG [C18U G84A] is higher in “polymerase ribozyme fitness (log ratio)” value: ≤ -4.2 for the first, -0.579 for the second.

Going from GGAUCUUCUCGAUCUAAUAAAAAAGACAAAUCUGCCACAAAGCUUGAGAGCAUCUUCGGAUGCAGAGGCGGCAGCCUUCGGUGACGCGAUAGCGCCAACGUUCUCAACUAUGGUACGCAAAACGCGUGCUCCGUUGAAUGGAGUUUAUCAUG [C18U G84A A113G C114U] to GGAUCUUCUCGAUCUAAUAAAAAAGACAAAUCUGCCACAAAGCUUGAGAGCAUCUUCGGAUGCAGAGGCGGCAGCCUUCGGUGGCACGAUAGCGCAAACGGUCUCAACUAUUACACGCAAAACGCGUGCUCCGUUGAAUGGAGUUUAUCAUG [C18U G86A C96A U101G G112U], the “polymerase ribozyme fitness (log ratio)” value falls from -2.6 to ≤ -4.2.

GGAUCUUCUCGAUCUAAUAAAAAAGACAAAUCUGCCACAAAGCUUGAGAGCAUCUUCGGAUGCAGAGGCGGCAGCCUUCGGUGGCACGAUAGCGCCAACGUUCUCAACUAUGACACGCAAAACGCGUGCUCCGUUGAAUAGAGUUUAUCAUG [C18U G86A G140A] and GGAUCUUCUCGAUCUAAUAAAAAAGACAAAACUGCCACAAAGCUUGAGAGCAUCUUCGGAUGCAGAGGCGGCAGCUUUCGGUGGCGCGAUAGCGCCAACGUUCUCAGCUAUGACACGCAAAACGCGUGCUCCGUUGAAUGGAGGUUAUCAUG [C18U U31A C76U A107G U144G] cannot be ordered by “polymerase ribozyme fitness (log ratio)” value: ≤ -4.2 for the first, ≤ -4.2 for the second.

For GGAUCUUCUCGAUCUAAUAAAAAAGACAAAGCUGCCACAAAGCUUGAGAGCAUCUUCGGAUGCAGACGCGGCAGCCUUCGGUGGCUCGAUAGCGCCAACGUUCUCAACCAUGACACGCAAAACGCGUGCUCCGUUGAAUGGAGUUUAUCAUG [C18U U31G G67C G86U U109C], the “polymerase ribozyme fitness (log ratio)” value was ≤ -4.2.
